Assay results taken from PubChem BioAssay (Tox21).
Inconclusive results, whose numbers are uncertain, are shown with a selection of clear calls. No potency is given beside an inconclusive call; the fits are too rough. Active and inactive are the calls of the source. Calls come from the whole dose curve; as a rule, active = well fitted cell-killing curve with a large enough effect in the repeat runs; inconclusive = weak or mixed curves, or effect the other way; inactive = flat fitted curve, though single readings scatter.

Assay: qHTS RealTime-Glo MT Cell Viability Assay in HepG2 cells - 40 hour (AID 1224870); note: nearly all actives have a fitted effect of over 50% in size
Settings: RealTime-Glo luminescence; series mostly up to 76.8 µM; activity change, negative = cytotoxic: at the top concentration
Text: National Center for Advancing Translational Sciences [NCATS]
NIH Chemical Genomics Center [NCGC]
U.S. Environmental Protection Agency [EPA]
National Institutes of Environmental Health Sciences [NIEHS]
National Toxicology Program [NTP]
U.S. Food and Drug Administration [FDA]
Measure of cell viability is critical in the cell-base assay. Analysis of cell viability is necessary for the characterization of cell responses to cytotoxic drugs and environmental stress. A RealTime-Glo MT Cell Viability Assay to monitor cell viability in real time of continues cell culture during 40 hours of compound treatment was used to screen Tox21 10K library compounds in HepG2 cells. The RealTime-Glo MT Cell Viability Assay is a nonlytic, homogeneous, bioluminescent method to measure cell viability in real time using a simple, plate-based method. The assay involves adding NanoLuc luciferase and a cell-permeant prosubstrate to cells in culture. Viable cells reduce the proprietary prosubstrate to generate a substrate for NanoLuc luciferase. This substrate diffuses from cells into the surrounding culture medium, where it is rapidly used by the NanoLuc Enzyme to produce a luminescent signal. The signal correlates with the number of viable cells, making the assay well suited for cytotoxicity studies.
Tox21 Assay Protocol Summary:
The mixture of HepG2 cell suspension and reagents were dispensed at 600cells/6 ul/well in 1536-well tissue culture treated black solid bottom plates using a Multidrop dispenser. After the assay plates were incubated at a 37 C/5% CO2 incubator for 5 hours, 23 nL of compounds dissolved in DMSO, positive and negative controls was transferred to the assay plate by a pintool work station. The plates were incubated at 37 C for 40 hours. The luminescence intensity were measured at 0h, 8h, 16h, 24h, 32h and 40h time points using ViewLux plate reader during compound treatment.
% is set by controls: 0 for no effect and ±100 for the full control effect; potency is the fitted concentration of half-maximal effect; tags give direction and shape of the fitted curve.

Compound	Potency	activity change, negative = cytotoxic
CC(C)(C)c1cc(CCC(=O)OCCSCCOC(=O)CCc2cc(C(C)(C)C)c(O)c(C(C)(C)C)c2)cc(C(C)(C)C)c1O	inconclusive [rising, partial curve, poor fit]	–
Cc1ccccc1C	–	inactive: 0.587%
CCCCCCCCCOCC1CO1 (stereo not drawn)	–	inactive: -1.91%
C=C(C)CCCC	–	inactive: -0.443%
CCCCCCCCCC(C)=O	–	inactive: 0.24%
O=C(O)CCCCCC(=O)O	–	inactive: 3.42%
COC(=O)CC(C)=O	–	inactive: -5.85%
CC(C)(O)C(=O)c1ccccc1	–	inactive: -0.506%
CCCCC(C)C(=O)O (stereo not drawn)	inconclusive [falling, single point]	–
CCCCCCCCCCCCCCCCO	inactive	–
CC1=CC[C@@H](C(C)(C)O)CC1	inconclusive [rising, partial curve, poor fit]	–
C[C@H]1C[C@H]2[C@@H]3CCC4=CC(=O)C=C[C@]4(C)[C@@]3(F)[C@@H](O)C[C@]2(C)[C@@]1(O)C(=O)CO	inactive	–
CCC1(C)C(=O)N(Cl)C(=O)N1Cl (stereo not drawn)	–	inactive: -11.6%
CC1(C)COCN1	inconclusive [rising, partial curve]	–
O=[N+]([O-])c1ccc(CO)cc1	inconclusive [rising, partial curve, poor fit]	–
O=C(O)CCSSCCC(=O)O	–	inactive: 2.33%
C=C(C)C(=O)OCc1ccccc1	–	inactive: 2.38%

Compound	Potency	activity change, negative = cytotoxic
COc1ccccc1C=O	inconclusive [rising, partial curve, poor fit]	–
Clc1cc(Cl)c(-c2c(Cl)c(Cl)cc(Cl)c2Cl)cc1Cl	inconclusive [rising, partial curve]	–
CC(=O)Nc1ccccc1O	–	inactive: 1.46%
OCCN1CN(CCO)CN(CCO)C1	inconclusive [rising, partial curve]	–
CC(CC(C)(C)C)CC(C)(C)CC(C)(C)C (stereo not drawn)	inconclusive [rising, partial curve, poor fit]	–
CCCC[O][Al]([O]CCCC)[O]CCCC	–	inactive: 0.0006%
CC1(C)C(=O)N(CO)C(=O)N1CO	–	inactive: -3.51%
CN(C)C	inactive	–
CC(O)C1CCCCC1 (stereo not drawn)	–	inactive: 2.66%
Clc1nc2ccccc2s1	–	inactive: 30.2%
C1CCCCCCCCCCC1	inconclusive [rising, partial curve, poor fit]	–
OCCCc1cccnc1	inconclusive [rising, partial curve, poor fit]	–
Cc1nc2n(c(=O)c1CCN1CCC(c3noc4cc(F)ccc34)CC1)CCC[C@H]2O	–	inactive: 0.984% [at 15.8 µM]
O=S(=O)(O)c1cc(O)ccc1O	–	inactive: 1.59%
CCC(C)C(=O)OC (stereo not drawn)	inconclusive [rising, partial curve, poor fit]	–
C[N+](C)(C)CC(O)CCl (stereo not drawn)	–	inactive: 7.71%
